# Reference: publication PMC4336329 (PLoS ONE, 2015)
# Hit rate of the full screen: of about 310,000 compounds, about 2,200 (0.71%) showed an effect of 50% or more. The effect is printed as a negative number. The list shows a part of the results.
# Molecular target: human ether-à-go-go-related gene (hERG) potassium channel (human, UniProt Q12809)
# Assay: primary screen, population patch clamp on CHO cells stably expressing hERG
# Chain of human ether-à-go-go-related gene (hERG) potassium channel (Q12809 whole entry, looked up): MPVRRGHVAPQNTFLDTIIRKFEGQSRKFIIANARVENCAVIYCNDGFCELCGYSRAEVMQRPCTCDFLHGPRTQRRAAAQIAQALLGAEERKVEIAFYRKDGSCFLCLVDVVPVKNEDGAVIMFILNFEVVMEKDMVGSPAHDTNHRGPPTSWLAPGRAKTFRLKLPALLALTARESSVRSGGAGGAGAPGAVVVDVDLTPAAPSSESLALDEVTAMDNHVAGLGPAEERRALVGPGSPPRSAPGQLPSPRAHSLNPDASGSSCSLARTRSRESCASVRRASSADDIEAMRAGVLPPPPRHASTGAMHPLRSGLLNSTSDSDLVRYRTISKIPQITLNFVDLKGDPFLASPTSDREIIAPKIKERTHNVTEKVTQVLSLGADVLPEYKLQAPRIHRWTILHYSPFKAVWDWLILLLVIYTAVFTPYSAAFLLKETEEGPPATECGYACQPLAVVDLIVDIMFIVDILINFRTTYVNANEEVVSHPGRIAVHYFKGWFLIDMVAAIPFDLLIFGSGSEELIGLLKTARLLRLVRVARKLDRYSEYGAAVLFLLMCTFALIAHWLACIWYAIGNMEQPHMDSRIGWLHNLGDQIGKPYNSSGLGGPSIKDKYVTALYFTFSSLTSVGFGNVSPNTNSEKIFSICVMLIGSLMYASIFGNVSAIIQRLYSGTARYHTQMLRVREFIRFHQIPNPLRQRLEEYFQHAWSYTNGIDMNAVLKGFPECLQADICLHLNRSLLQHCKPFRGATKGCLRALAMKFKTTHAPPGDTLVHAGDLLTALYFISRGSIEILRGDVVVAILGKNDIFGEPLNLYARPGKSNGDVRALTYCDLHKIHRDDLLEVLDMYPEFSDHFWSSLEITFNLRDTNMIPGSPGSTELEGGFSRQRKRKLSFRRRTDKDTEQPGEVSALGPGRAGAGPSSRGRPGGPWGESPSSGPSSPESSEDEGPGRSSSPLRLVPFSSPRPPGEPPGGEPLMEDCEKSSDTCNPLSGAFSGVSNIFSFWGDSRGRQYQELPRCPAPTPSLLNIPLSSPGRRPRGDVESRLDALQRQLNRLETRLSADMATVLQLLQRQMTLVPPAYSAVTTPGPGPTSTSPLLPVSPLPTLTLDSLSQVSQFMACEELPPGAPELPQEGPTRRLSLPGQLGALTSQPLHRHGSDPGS
row,Structure (SMILES),"hERG current change (%, negative = inhibition) at 1uM [%]"
1,CCCCn1c(N)c(N(CCC(C)C)C(=O)c2ccc(C)c(S(=O)(=O)N3CCOCC3)c2)c(=O)[nH]c1=O,5.89
2,CC(=O)Nc1ccc(NC(=O)C2CC(=O)N=C(N)S2)cc1 (stereo not shown),3.85
3,COc1ccc(C2=NS(=O)(=O)N(C)C(C(=O)N3C(C)CCCC3C)=C2)cc1 (stereo not shown),3.48
4,CCCCC(=O)NC(=S)Nc1cccc(C(=O)O)c1,8.95
5,COc1ccc(N(CC(=O)NCc2ccccc2C)S(=O)(=O)c2ccc(C)cc2)cc1OC,7.29
6,O=C(CN1NS(=O)(=O)c2ccccc2C1=O)Nc1ccccc1OC(F)F,-1.21
7,CCc1cc(C(c2cccc(OC)c2)N2CCOCC2)c(NC(=O)c2ccccc2)s1 (stereo not shown),9.83
8,N#C/C(=C/c1ccc([N+](=O)[O-])cc1)C(N)=O,10.4
9,COc1ccc(OC/C(O)=C(\C#N)c2nc3ccccc3[nH]2)cc1,-5.19
10,CCCC[N+]12C3C[C@H](C4[C@H](O)[C@]5(C[C@@H]41)c1ccccc1N(C)[C@@H]35)[C@H](CC)[C@H]2O.[I-] (stereo partly shown),-24.9
11,COc1ccc(C2C(C(C)=O)=C(O)C(=O)N2c2ccc(Br)cc2)cc1 (stereo not shown),13.5
12,CCCn1c2ccccc2c2cnn(CC(=O)N(CC)CC)c(=O)c21,8.76
13,Cc1ccc(C2(c3noc(CN(C)Cc4cnn(C)c4)n3)CCCC2)cc1,11.8
14,CCCCC(=O)Nc1nc(C)c(-c2csc(Nc3cc(OC)ccc3OC)n2)s1,0.696
15,CN(c1ccccc1C(=O)Nc1cccc([N+](=O)[O-])c1)S(=O)(=O)c1ccccc1,-13.8
16,N#Cc1c(NC(=O)c2cnn3cccnc23)sc2c1CCCC2,7.93
17,CC(C)c1cc(C(=O)N2CCCC(N3CCN(c4ccc(F)cc4)CC3)C2)no1 (stereo not shown),-36.4
18,COCCCNC(=O)Nc1ccc(Br)cc1Cl,17.9
19,CCOCCn1c(CN2CCN(C(c3ccccc3)c3ccccc3)CC2)nc2c1c(=O)n(C)c(=O)n2C,11.3
20,Cn1nc(C(=O)OCC(=O)Nc2sccc2C(N)=O)c2ccccc2c1=O,9.92
21,COc1ccc(N2C(=NC(=O)C3CCCCC3)SC3CS(=O)(=O)CC32)cc1Cl (stereo not shown),9.12
22,O=C(NCC1CCCN(C(=O)c2cccnc2)C1)c1ccc(-c2ccccc2)cc1 (stereo not shown),-4.76

row,Structure (SMILES),"hERG current change (%, negative = inhibition) at 1uM [%]"
1,CCOC(=O)c1ccccc1NS(=O)(=O)c1cnn(CC)c1C,4.74
2,CC(C)N1CCC(n2nccc2NC(=O)c2ccc3c(c2)OCO3)CC1,12
3,COc1ccccc1OCCN1CSC(=S)N(C)C1,3.62
4,CCOc1ccccc1NC(=O)c1cccc(S(=O)(=O)N(Cc2ccccc2)c2ccccc2OC)c1,6.89
5,Cl.Nc1ncnc2nc[nH]c12,8.3
6,Cc1cccnc1NC(=O)c1ccc(S(=O)(=O)N2CCCCC2)cc1,13
7,COc1cc(/C=N/NC(=S)NCc2ccco2)cc(OC)c1OC,16.8
8,Cc1ccccc1NC(=O)N1CCCN(c2ccc(C#N)cn2)CC1,7.61
9,CCN(CC)S(=O)(=O)c1ccc(Oc2ccc(S(=O)(=O)N(CC)CC)cc2)cc1,3.98
10,CC(CCc1ccccc1)NC(=O)CCN1N=C(c2ccccc2)CCC1=O (stereo not shown),4.68
11,Cc1ccc(NC(=O)CCc2c(C)nn(-c3ccc(N4CCCCC4)nn3)c2C)cc1,5.83
12,COC(=O)C(=Nc1ccccc1)/C(C(=O)C(=O)N(C)c1ccccc1)=C(\O)c1ccccc1,19.5
13,COC(=O)C1=C(c2cccc(OCc3ccccc3)c2)C[C@@H]2CC[C@H]1N2C(=O)NCc1cccc(OC)c1,8.65
14,C=C(C)CNC(=S)NNC(=O)CCn1c2ccccc2c2ccccc21,-2.86
15,CC(OC(=O)c1cnc(Cl)c(Cl)c1)C(=O)NCc1ccccc1 (stereo not shown),0.333
16,COc1ccccc1N(CC1CO1)S(=O)(=O)c1ccc(C)cc1 (stereo not shown),12.3
17,COc1ccc(OC)c(NC(=O)CSc2nc3cccnc3n2C)c1,4.28
18,CC1CCN(CC(=O)Nc2ccccc2Sc2ccccc2)CC1,0.0629
19,O=C(Nc1ccccc1N1CCCCC1)C1CC(=O)N(c2ccccc2F)C1 (stereo not shown),6.17
20,CC(C)CCn1cnc2c1c(=O)[nH]c(=O)n2Cc1ccccc1,13.7
21,C/C(=N\NC(=O)Cn1nc(C)c([N+](=O)[O-])c1C)c1ccc(Cl)s1,8.79
22,CCCCCn1c(N)c(C(=O)NCc2cccs2)c2nc3ccccc3nc21,-2.17

row,Structure (SMILES),"hERG current change (%, negative = inhibition) at 1uM [%]"
1,O=C(c1ccco1)N1CCN(C23CC4CC(CC(C4)C2)C3)CC1,-6.2
2,CCOc1ccccc1N1C(=O)NC(=O)/C(=C/c2ccc3c4c(cccc24)CC3)C1=O,3.58
3,O=c1[nH]c2ccc(NCc3ccccc3OCc3ccc(Cl)cc3)cc2[nH]1,9.98
4,O=C(N/N=C/c1cccs1)c1cc(-c2ccc3ccccc3c2)n[nH]1,9.9
5,O=C(NCN1C(=O)C2C3C=CC(C3)C2C1=O)OC1CCCCC1 (stereo not shown),9.06
6,N#Cc1nc(Cc2ccccc2)oc1NCc1ccccc1Cl,-2.46
7,CC1Cc2ccccc2N1S(=O)(=O)c1cccs1 (stereo not shown),6.91
8,COc1ccc(CCNC(=O)C(=O)NCC2CCCN2S(=O)(=O)c2ccccc2)cc1 (stereo not shown),-3.28
9,Fc1ccc(-n2c(-c3ccc4ccccc4n3)n[nH]c2=S)cc1Cl,6.07
10,O=C(Nc1ccccc1Cl)OCc1cncs1,10.9
11,CC(=O)Oc1ccc2oc(=O)c3c(c2c1)CCCN3C(=O)CN1CCOCC1,3.94
12,COC/C=C/C1=CC2=CC(=O)C(C)(OC(=O)c3cnc4ccccc4n3)C(=O)C2=CN1C(CO)CO (stereo not shown),9.62
13,C/C=C/CSc1nc2c(c(=O)[nH]c(=O)n2C)n1Cc1ccc(C)cc1,5.82
14,c1cc2c(cc1[C@H]1OC[C@H]3[C@@H]1CO[C@@H]3c1ccc3c(c1)OCO3)OCO2,-0.141
15,CC(=O)Oc1ccc2nc(-c3ccc(Br)o3)oc(=O)c2c1,12.8
16,CSCC[C@H](NC(=O)CC(C)(C)C)c1nc2ccccc2[nH]1,-10.2
17,CCOc1ccc(N(CC(=O)NCCSCc2ccc(C)cc2)S(C)(=O)=O)cc1,13.4
18,Cc1sc2c(c1C)C(=O)/C(=C\Nc1ccncc1)S(=O)(=O)N2C,11.8
19,O=C(O)C/C=C(\NC(=O)OCc1ccccc1)C(=O)OCc1ccccc1,11.1
20,Cc1cccc(NC(=O)CNC(=O)COC(=O)CCS(=O)(=O)c2ccccc2)c1C,12.3
21,CCC(C)NC(=O)CSc1nc(-c2cccs2)cc(C(F)(F)F)n1 (stereo not shown),12.6
22,CCOC(=O)c1cnn(-c2ncnc3sc(C)c(C)c23)c1N,12.8

row,Structure (SMILES),"hERG current change (%, negative = inhibition) at 1uM [%]"
1,COc1cc(NC(=O)CN(C)S(=O)(=O)c2ccc3c(c2)CC(C)N3C(C)=O)cc(OC)c1 (stereo not shown),12.7
2,Cc1nnc(SCC(=O)N2CCN(C(=O)c3ccco3)CC2)n1-c1ccccc1,9.13
3,COc1ccc(CN(CCC#N)C(=S)NC(=O)c2ccccc2)cc1,13
4,FC(F)c1nnc2c(Cl)cc(C(F)(F)F)cn12,10.8
5,COc1ccc(-c2nnc(SC(C)C(=O)NNC(=O)c3ccc(C)cc3)o2)cc1 (stereo not shown),13.4
6,COc1cc(NS(=O)(=O)c2ccc(NC(=S)NC(=O)CC(C)C)cc2)nc(OC)n1,20.7
7,CN(Cc1ccccc1F)C(=O)COc1ccc(C(=O)c2ccccc2)cc1,12.4
8,Cc1cc(C)cc(N2C(=O)CN(Cc3sccc3C)C2=S)c1,9.99
9,O=C(Nc1ccc2oc(-c3ccncc3)nc2c1)c1ccccc1F,7.55
10,COc1ccc(-n2c(COc3ccc(C)cc3)nnc2SCc2ccc(C#N)cc2)cc1,-3.44
11,COc1ccc(C(C(=O)NC2CCCCC2)N(C(=O)c2snc(C(N)=O)c2N)c2ccc(OC)cc2OC)cc1 (stereo not shown),7.41
12,CCNC(=O)N1CCC(c2nc3ccccc3s2)CC1,12
13,Cc1nc2ccc(NC(=O)c3cc(S(=O)(=O)N(C)c4ccccc4)ccc3Cl)cc2s1,3.43
14,CCC(C)NS(=O)(=O)c1ccc(NC(=O)C2CCCO2)cc1 (stereo not shown),11
15,CN(C)S(=O)(=O)c1ccc(Cl)c(C(=O)NC2=NCCS2)c1,14
16,Cc1ccc(S(=O)(=O)NC23CC4CC(CC(C4)C2)C3)cc1,1.31
17,CCC(=O)N1CCc2cc(S(=O)(=O)CCC(=O)N3CCN(c4ccc(C(C)=O)cc4)CC3)ccc21,16
18,FC(F)(F)c1cnc(Oc2cccc3ccccc23)c(Cl)c1,6.39
19,CSCC[C@H](NC(=O)C(C)(C)Oc1ccc(Cl)cc1)c1nc2ccccc2[nH]1,11.4
